# Assay results from the supplement of paper PMC8728848.
# This is one part of the list.
# What was measured:
# Experiment in all cases: glycan array binding signal (z-score within array); higher = stronger binding
# Settings in all cases: glycan notation: IUPAC condensed, linker removed; mutation: R120K
# GalNAc3S(b1-4)GlcNAc3S = target: GalNAc3S(b1-4)GlcNAc3S
# Summary of the method: (§1)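 From the Consortium for Functional Glycomics database, 3228 arrays were curated, keeping only those whose protein sequence was available. Binding is given as a within-array Z-score averaged across arrays sharing a protein sequence and across linkers. Negative Z-scores can be read as non-binding.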
# [1] = target: GalNAc3S(b1-4)[Fuc(a1-3)]GlcNAc
# Summary of the method: as §1
# GalNAc4S6S(b1-4)GlcNAc = target: GalNAc4S6S(b1-4)GlcNAc
# Summary of the method: as §1
# GalNAc6S(b1-4)GlcNAc = target: GalNAc6S(b1-4)GlcNAc
# Summary of the method: as §1
# Glc(a1-4)Glc = target: Glc(a1-4)Glc
# Summary of the method: as §1
# [2] = target: Glc(a1-4)Glc(a1-4)Glc(a1-4)Glc
# Summary of the method: as §1
# Glc(a1-6)Glc(a1-6)Glc = target: Glc(a1-6)Glc(a1-6)Glc
# Summary of the method: as §1
# [3] = target: Glc(a1-6)Glc(a1-6)Glc(a1-6)Glc
# Summary of the method: as §1
# Glc(b1-4)Glc = target: Glc(b1-4)Glc
# Summary of the method: as §1
# Glc(b1-6)Glc = target: Glc(b1-6)Glc
# Summary of the method: as §1
# GlcA(b1-3)Gal = target: GlcA(b1-3)Gal
# Summary of the method: as §1
# GlcA(b1-3)GlcNAc = target: GlcA(b1-3)GlcNAc
# Summary of the method: as §1
# GlcA(b1-6)Gal = target: GlcA(b1-6)Gal
# Summary of the method: as §1
# [4] = target: GlcA3S(b1-3)Gal(b1-4)GlcNAc(b1-2)Man
# Summary of the method: as §1
# [5] = target: GlcA3S(b1-3)Gal(b1-4)GlcNAc(b1-3)Gal(b1-4)Glc
# Summary of the method: as §1
# [6] = target: GlcNAc(a1-3)Gal(b1-4)GlcNAc
# Summary of the method: as §1
# [7] = target: GlcNAc(a1-4)Gal(b1-3)GlcNAc
# Summary of the method: as §1
# [8] = target: GlcNAc(a1-4)Gal(b1-4)GalNAc
# Summary of the method: as §1
# [9] = target: GlcNAc(a1-4)Gal(b1-4)GlcNAc
# Summary of the method: as §1
# [10] = target: GlcNAc(a1-4)Gal(b1-4)GlcNAc(b1-3)Gal(b1-4)Glc
# Summary of the method: as §1
# [11] = target: GlcNAc(a1-4)Gal(b1-4)GlcNAc(b1-3)Gal(b1-4)GlcNAc
# Summary of the method: as §1
# [12] = target: GlcNAc(a1-4)Gal(b1-4)GlcNAc(b1-3)Gal(b1-4)GlcNAc(b1-3)Gal(b1-4)GlcNAc
# Summary of the method: as §1
# [13] = target: GlcNAc(a1-4)Gal(b1-4)GlcNAc(b1-3)Gal(b1-4)[Fuc(a1-3)]GlcNAc(b1-3)Gal(b1-4)[Fuc(a1-3)]GlcNAc
# Summary of the method: as §1
# [14] = target: GlcNAc(a1-6)Gal(b1-4)GlcNAc
# Summary of the method: as §1
# [15] = target: GlcNAc(b1-2)Gal(b1-3)GalNAc
# Summary of the method: as §1
# [16] = target: GlcNAc(b1-2)Man(a1-3)[GlcNAc(b1-2)Man(a1-6)]Man(b1-4)GlcNAc(b1-4)GlcNAc
# Summary of the method: as §1
# [17] = target: GlcNAc(b1-2)Man(a1-3)[GlcNAc(b1-2)Man(a1-6)]Man(b1-4)GlcNAc(b1-4)[Fuc(a1-6)]GlcNAc
# Summary of the method: as §1
# [18] = target: GlcNAc(b1-2)Man(a1-3)[GlcNAc(b1-4)][GlcNAc(b1-2)Man(a1-6)]Man(b1-4)GlcNAc(b1-4)GlcNAc
# Summary of the method: as §1
# [19] = target: GlcNAc(b1-2)Man(a1-3)[GlcNAc(b1-4)][GlcNAc(b1-2)Man(a1-6)]Man(b1-4)GlcNAc(b1-4)[Fuc(a1-6)]GlcNAc
# Summary of the method: as §1
# [20] = target: GlcNAc(b1-2)[GlcNAc(b1-4)]Man(a1-3)[GlcNAc(b1-2)Man(a1-6)]Man(b1-4)GlcNAc(b1-4)GlcNAc
# Summary of the method: as §1
# [21] = target: GlcNAc(b1-2)[GlcNAc(b1-4)]Man(a1-3)[GlcNAc(b1-4)][GlcNAc(b1-2)Man(a1-6)]Man(b1-4)GlcNAc(b1-4)GlcNAc
# Summary of the method: as §1
# [22] = target: GlcNAc(b1-2)[GlcNAc(b1-4)]Man(a1-3)[GlcNAc(b1-4)][GlcNAc(b1-2)[GlcNAc(b1-6)]Man(a1-6)]Man(b1-4)GlcNAc(b1-4)GlcNAc
# Summary of the method: as §1
# [23] = target: GlcNAc(b1-2)[GlcNAc(b1-4)]Man(a1-3)[GlcNAc(b1-4)][GlcNAc(b1-2)[GlcNAc(b1-6)]Man(a1-6)]Man(b1-4)GlcNAc(b1-4)[Fuc(a1-6)]GlcNAc
# Summary of the method: as §1
# [24] = target: GlcNAc(b1-2)[GlcNAc(b1-6)]Man(a1-6)[GlcNAc(b1-2)Man(a1-3)]Man(b1-4)GlcNAc(b1-4)GlcNAc
# Summary of the method: as §1
# [25] = target: GlcNAc(b1-2)[GlcNAc(b1-6)]Man(a1-6)[GlcNAc(b1-2)Man(a1-3)]Man(b1-4)GlcNAc(b1-4)[Fuc(a1-6)]GlcNAc
# Summary of the method: as §1
# [26] = target: GlcNAc(b1-2)[GlcNAc(b1-6)]Man(a1-6)[GlcNAc(b1-4)][GlcNAc(b1-2)Man(a1-3)]Man(b1-4)GlcNAc(b1-4)GlcNAc
# Summary of the method: as §1
# GlcNAc(b1-3)Fuc = target: GlcNAc(b1-3)Fuc
# Summary of the method: as §1
# GlcNAc(b1-3)Gal = target: GlcNAc(b1-3)Gal
# Summary of the method: as §1
binder,measurement,setting,value
"Siglec-9 (Homo sapiens), Q9Y336 (protein) MLLLLLPLLWGRERAEGQTSKLLTMQSSVTVQEGLCVHVPCSFSYPSHGWIYPGPVVHGYWFREGANTDQDAPVATNNPARAVWEETRDRFHLLGDPHTKNCTLSIRDARRSDAGRYFFKMEKGSIKWNYKHHRLSVNVTALTHRPNILIPGTLESGCPQNLTCSVPWACEQGTPPMISWIGTSVSPLDPSTTRSSVLTLIPQPQDHGTSLTCQVTFPGASVTTNKTVHLNVSYPPQNLTMTVFQGDGTVSTVLGNGSSLSLPEGQSLRLVCAVDAVDSNPPARLSLSWRGLTLCPSQPSNPGVLELPWVHLRDAAEFTCRAQNPLGSQQVYLNVSLQSKATSGVTQGVVGGAGATALVFLSFCVIFVVVRSCRKKSARPAAGVGDTGIEDANAVRGSASQGPLTEPWAEDSPPDQPPPASARSSVGEGELQYASLSFQMVKPWDSRGQEATDTEYSEIKIHR",glycan array binding signal (z-score),GalNAc3S(b1-4)GlcNAc3S,-0.23
same,glycan array binding signal (z-score),[1],-0.228
same,glycan array binding signal (z-score),GalNAc4S6S(b1-4)GlcNAc,0.324
same,glycan array binding signal (z-score),GalNAc6S(b1-4)GlcNAc,-0.304
same,glycan array binding signal (z-score),Glc(a1-4)Glc,-0.25
same,glycan array binding signal (z-score),[2],1.27
same,glycan array binding signal (z-score),Glc(a1-6)Glc(a1-6)Glc,0.116
same,glycan array binding signal (z-score),[3],0.714
same,glycan array binding signal (z-score),Glc(b1-4)Glc,-0.264
same,glycan array binding signal (z-score),Glc(b1-6)Glc,0.092
same,glycan array binding signal (z-score),GlcA(b1-3)Gal,-0.277
same,glycan array binding signal (z-score),GlcA(b1-3)GlcNAc,-0.179
same,glycan array binding signal (z-score),GlcA(b1-6)Gal,0.061
same,glycan array binding signal (z-score),[4],0.03
same,glycan array binding signal (z-score),[5],0.216
same,glycan array binding signal (z-score),[6],-0.474
same,glycan array binding signal (z-score),[7],-0.505
same,glycan array binding signal (z-score),[8],-0.511
same,glycan array binding signal (z-score),[9],-0.366
same,glycan array binding signal (z-score),[10],-0.466
same,glycan array binding signal (z-score),[11],-0.374
same,glycan array binding signal (z-score),[12],-0.535
same,glycan array binding signal (z-score),[13],0.551
same,glycan array binding signal (z-score),[14],-0.661
same,glycan array binding signal (z-score),[15],-0.283
same,glycan array binding signal (z-score),[16],-0.141
same,glycan array binding signal (z-score),[17],-0.036
same,glycan array binding signal (z-score),[18],0.622
same,glycan array binding signal (z-score),[19],-0.232
same,glycan array binding signal (z-score),[20],-0.081
same,glycan array binding signal (z-score),[21],8.32
same,glycan array binding signal (z-score),[22],-0.189
same,glycan array binding signal (z-score),[23],-0.415
same,glycan array binding signal (z-score),[24],-0.232
same,glycan array binding signal (z-score),[25],-0.377
same,glycan array binding signal (z-score),[26],-0.476
same,glycan array binding signal (z-score),GlcNAc(b1-3)Fuc,-0.166
same,glycan array binding signal (z-score),GlcNAc(b1-3)Gal,-0.602
